# Experimental data reported in the supplement of paper PMC8728848.
# This is one part of the list.
# B1: LSL-150 (Laetiporus sulphureus), Q7Z8V1 (protein)
# chain: MTDIYIPPEGLYFRLLGFASRQVIFARNSPSPDVGLSPVNDQATDQYFSLIYGTGEHAGLYAIKSKATGKVLFSRRPAEPYVGQIDGDGRYPDNWFKIEPGKTYLSKYFRLVQPSTGTALVSRTHLQPYFWNHPQTEVFDDQYFTFLFEDHHHHHH
# Experiments:
# Assay in all cases: glycan array binding signal (z-score within array); higher = stronger binding
# Details in all cases: glycan notation: IUPAC condensed, linker removed
# [1] = target: Fuc(a1-2)[GalNAc(b1-3)]Gal
# In short: (§1)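 The binding signal is a Z-score computed within each array and averaged over linkers. Arrays of the same protein sequence at different concentrations or buffers were also averaged together. Data originate from 3228 arrays in the Consortium for Functional Glycomics database, kept only where the protein sequence was available.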
# Fuc(a1-3)GlcNAc = target: Fuc(a1-3)GlcNAc
# In short: as §1
# [2] = target: Fuc(a1-3)[Gal(b1-4)]Glc6S
# In short: as §1
# [3] = target: Fuc(a1-3)[Gal(b1-4)]GlcNAc
# In short: as §1
# [4] = target: Fuc(a1-3)[Gal(b1-4)]GlcNAc(b1-2)Man
# In short: as §1
# [5] = target: Fuc(a1-3)[Gal(b1-4)]GlcNAc(b1-2)Man(a1-3)[Fuc(a1-3)[Gal(b1-4)]GlcNAc(b1-2)Man(a1-6)]Man(b1-4)GlcNAc(b1-4)GlcNAc
# In short: as §1
# [6] = target: Fuc(a1-3)[Gal(b1-4)]GlcNAc(b1-2)Man(a1-3)[Fuc(a1-3)[Gal(b1-4)]GlcNAc(b1-2)Man(a1-6)]Man(b1-4)GlcNAc(b1-4)[Fuc(a1-6)]GlcNAc
# In short: as §1
# [7] = target: Fuc(a1-3)[Gal(b1-4)]GlcNAc(b1-3)Gal(b1-3)[Fuc(a1-4)]GlcNAc
# In short: as §1
# [8] = target: Fuc(a1-3)[Gal(b1-4)]GlcNAc(b1-3)Gal(b1-4)[Fuc(a1-3)]GlcNAc
# In short: as §1
# [9] = target: Fuc(a1-3)[Gal(b1-4)]GlcNAc(b1-3)Gal(b1-4)[Fuc(a1-3)]GlcNAc(b1-3)Gal(b1-4)[Fuc(a1-3)]GlcNAc
# In short: as §1
# [10] = target: Fuc(a1-3)[Gal(b1-4)]GlcNAc(b1-3)GalNAc
# In short: as §1
# [11] = target: Fuc(a1-3)[Gal(b1-4)]GlcNAc(b1-6)GalNAc
# In short: as §1
# [12] = target: Fuc(a1-3)[Gal(b1-4)]GlcNAc(b1-6)[Gal(b1-3)GlcNAc(b1-3)]Gal(b1-4)Glc
# In short: as §1
# [13] = target: Fuc(a1-3)[Gal(b1-4)]GlcNAc6S
# In short: as §1
# [14] = target: Fuc(a1-3)[Gal3S(b1-4)]Glc
# In short: as §1
# [15] = target: Fuc(a1-3)[Gal3S(b1-4)]GlcNAc
# In short: as §1
# [16] = target: Fuc(a1-3)[Gal3S(b1-4)]GlcNAc6S
# In short: as §1
# [17] = target: Fuc(a1-3)[GalNAc(b1-4)]GlcNAc
# In short: as §1
# [18] = target: Fuc(a1-3)[GalNAc(b1-4)]GlcNAc6S
# In short: as §1
# Fuc(a1-4)GlcNAc = target: Fuc(a1-4)GlcNAc
# In short: as §1
# Fuc(b1-3)GlcNAc = target: Fuc(b1-3)GlcNAc
# In short: as §1
# Gal(a1-2)Gal = target: Gal(a1-2)Gal
# In short: as §1
# Gal(a1-3)Gal = target: Gal(a1-3)Gal
# In short: as §1
# Gal(a1-3)Gal(b1-3)GlcNAc = target: Gal(a1-3)Gal(b1-3)GlcNAc
# In short: as §1
# [19] = target: Gal(a1-3)Gal(b1-3)GlcNAc(b1-2)Man
# In short: as §1
# [20] = target: Gal(a1-3)Gal(b1-3)GlcNAc(b1-2)Man(a1-3)[Gal(a1-3)Gal(b1-3)GlcNAc(b1-2)Man(a1-6)]Man(b1-4)GlcNAc(b1-4)GlcNAc
# In short: as §1
# [21] = target: Gal(a1-3)Gal(b1-3)GlcNAc(b1-3)GalNAc
# In short: as §1
# [22] = target: Gal(a1-3)Gal(b1-3)GlcNAc(b1-6)GalNAc
# In short: as §1
# [23] = target: Gal(a1-3)Gal(b1-3)[Fuc(a1-4)]GlcNAc(b1-2)Man(a1-3)[Gal(a1-3)Gal(b1-3)[Fuc(a1-4)]GlcNAc(b1-2)Man(a1-6)]Man(b1-4)GlcNAc(b1-4)GlcNAc
# In short: as §1
# Gal(a1-3)Gal(b1-4)Glc = target: Gal(a1-3)Gal(b1-4)Glc
# In short: as §1
# Gal(a1-3)Gal(b1-4)GlcNAc = target: Gal(a1-3)Gal(b1-4)GlcNAc
# In short: as §1
# [24] = target: Gal(a1-3)Gal(b1-4)GlcNAc(b1-2)Man
# In short: as §1
# [25] = target: Gal(a1-3)Gal(b1-4)GlcNAc(b1-2)Man(a1-3)[Gal(a1-3)Gal(b1-4)GlcNAc(b1-2)Man(a1-6)]Man(b1-4)GlcNAc(b1-4)GlcNAc
# In short: as §1
# [26] = target: Gal(a1-3)Gal(b1-4)GlcNAc(b1-3)GalNAc
# In short: as §1
# [27] = target: Gal(a1-3)Gal(b1-4)GlcNAc(b1-6)GalNAc
# In short: as §1
# [28] = target: Gal(a1-3)Gal(b1-4)[Fuc(a1-3)]GlcNAc
# In short: as §1
# [29] = target: Gal(a1-3)Gal(b1-4)[Fuc(a1-3)]GlcNAc(b1-2)Man(a1-3)[Gal(a1-3)Gal(b1-4)[Fuc(a1-3)]GlcNAc(b1-2)Man(a1-6)]Man(b1-4)GlcNAc(b1-4)GlcNAc
# In short: as §1
# Gal(a1-3)GalNAc = target: Gal(a1-3)GalNAc
# In short: as §1
# [30] = target: Gal(a1-3)[Gal(a1-4)]Gal(b1-4)GlcNAc
# In short: as §1
# [31] = target: Gal(a1-4)Gal(b1-3)GlcNAc(b1-2)Man(a1-3)[Gal(a1-4)Gal(b1-3)GlcNAc(b1-2)Man(a1-6)]Man(b1-4)GlcNAc(b1-4)GlcNAc
# In short: as §1
# Gal(a1-4)Gal(b1-4)Glc = target: Gal(a1-4)Gal(b1-4)Glc
# In short: as §1
# Gal(a1-4)Gal(b1-4)GlcNAc = target: Gal(a1-4)Gal(b1-4)GlcNAc
# In short: as §1
# [32] = target: Gal(a1-4)Gal(b1-4)GlcNAc(b1-2)Man(a1-3)[Gal(a1-4)Gal(b1-4)GlcNAc(b1-2)Man(a1-6)]Man(b1-4)GlcNAc(b1-4)GlcNAc
# In short: as §1
# [33] = target: Gal(a1-4)Gal(b1-4)GlcNAc(b1-3)Gal(b1-4)Glc
# In short: as §1
# Gal(a1-4)GlcNAc = target: Gal(a1-4)GlcNAc
# In short: as §1
binder,measurement,setting,value
B1,glycan array binding signal (z-score),[1],-0.214
same,glycan array binding signal (z-score),Fuc(a1-3)GlcNAc,-0.205
same,glycan array binding signal (z-score),[2],-0.203
same,glycan array binding signal (z-score),[3],-0.203
same,glycan array binding signal (z-score),[4],-0.205
same,glycan array binding signal (z-score),[5],-0.207
same,glycan array binding signal (z-score),[6],-0.197
same,glycan array binding signal (z-score),[7],-0.211
same,glycan array binding signal (z-score),[8],-0.199
same,glycan array binding signal (z-score),[9],-0.21
same,glycan array binding signal (z-score),[10],-0.208
same,glycan array binding signal (z-score),[11],-0.209
same,glycan array binding signal (z-score),[12],-0.204
same,glycan array binding signal (z-score),[13],-0.205
same,glycan array binding signal (z-score),[14],-0.209
same,glycan array binding signal (z-score),[15],-0.187
same,glycan array binding signal (z-score),[16],-0.201
same,glycan array binding signal (z-score),[17],-0.173
same,glycan array binding signal (z-score),[18],-0.205
same,glycan array binding signal (z-score),Fuc(a1-4)GlcNAc,-0.206
same,glycan array binding signal (z-score),Fuc(b1-3)GlcNAc,-0.203
same,glycan array binding signal (z-score),Gal(a1-2)Gal,-0.196
same,glycan array binding signal (z-score),Gal(a1-3)Gal,-0.209
same,glycan array binding signal (z-score),Gal(a1-3)Gal(b1-3)GlcNAc,-0.198
same,glycan array binding signal (z-score),[19],-0.194
same,glycan array binding signal (z-score),[20],-0.204
same,glycan array binding signal (z-score),[21],-0.21
same,glycan array binding signal (z-score),[22],-0.203
same,glycan array binding signal (z-score),[23],-0.203
same,glycan array binding signal (z-score),Gal(a1-3)Gal(b1-4)Glc,-0.203
same,glycan array binding signal (z-score),Gal(a1-3)Gal(b1-4)GlcNAc,-0.212
same,glycan array binding signal (z-score),[24],-0.208
same,glycan array binding signal (z-score),[25],-0.199
same,glycan array binding signal (z-score),[26],-0.21
same,glycan array binding signal (z-score),[27],-0.2
same,glycan array binding signal (z-score),[28],-0.213
same,glycan array binding signal (z-score),[29],-0.199
same,glycan array binding signal (z-score),Gal(a1-3)GalNAc,-0.205
same,glycan array binding signal (z-score),[30],-0.186
same,glycan array binding signal (z-score),[31],-0.204
same,glycan array binding signal (z-score),Gal(a1-4)Gal(b1-4)Glc,-0.198
same,glycan array binding signal (z-score),Gal(a1-4)Gal(b1-4)GlcNAc,-0.202
same,glycan array binding signal (z-score),[32],-0.202
same,glycan array binding signal (z-score),[33],-0.2
same,glycan array binding signal (z-score),Gal(a1-4)GlcNAc,-0.214
